The subject of this data set is ATP. Put plainly: switch fluorescence ratio, 500 uM ATP over buffer (Cy3 cluster intensity, sum of 5 cycles each) (fold (ratio)); higher = stronger signal-on switching upon ATP binding; sequences stand for … in TCGTCGGCAGCGTCAGATGTGTATAAGAGACAGTTTTTTTTTTTTTTTTTTTTTTTTT…TC. The settings on record: aptamer strand: ATP DNA aptamer (quencher-CACCTGGGGGAGTATTGCGGAGGAAGG + anchor), 100 nM annealed; ATP concentration: 500 uM; one replicate. A digest of the protocol: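 Cy3-labelled switching-strand clusters on a modified Illumina MiSeq flow-cell were annealed to 100 nM quencher-labelled ATP aptamer, imaged in selection buffer, then imaged after 15 min with 500 uM ATP at 22 °C. Five buffer/ATP cycles ran, with NaOH stripping and re-annealing between them. The fluorescence ratio is summed target-cycle over summed buffer-cycle Cy3 intensity per cluster, averaged per switch-domain sequence. Clusters outside 100-1000 RFU were excluded.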

Switch fluorescence ratio data for 67 sequences are collected here from the supplement of paper PMC10126150.

Sequences with one replicate were seen in a single cluster, so their values are uncertain.
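Further: ATP exposure 15 min at 22 °C before imaging.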

As to TTGTCATAAT, the switch fluorescence ratio is 0.982. With TCCAGAATG the figure was 1.01; with CAGTAGGCTA, 1.03; with TCCCGTGGGC, 1.11. With CCCTAGCCAC the figure was 3.03; with AGAATGCCTT, 0.968. With GTGGGTAACA the figure was 0.995; with GCGTTTTCAT, 0.982; with AACGTAGGTC, 1.1.

For TGACGTACAC, the switch fluorescence ratio was determined as 1.67. With GAACGGTCCC the figure was 1.01. On to TTACAGCCAA, for which the switch fluorescence ratio stood at 1.02. Take TGTGACGTC: the switch fluorescence ratio came out at 1.01.

Consider AAGGTCATGA, for which the switch fluorescence ratio is 0.977. With AGCGCCCTTA the figure was 0.988; with AGAAACACGA, 1.05; with TAAAGTGAAC, 1.02. For AAAAACTCGG, the switch fluorescence ratio came to 1.01. Regarding GGTGCGTAGC, the switch fluorescence ratio came to 0.972. TCCCCGGCGG: the switch fluorescence ratio amounted to 1.11.

Regarding AAACAGTTTA, the switch fluorescence ratio was found to be 0.976. With TGCCTTACGG the figure was 1. In the case of CAGACGGGCC, the switch fluorescence ratio turned out to be 1.03. Next, GCGGTTGTGT: 1.11; GTGGTTGCAT: 0.945; TCCATACTCT: 1.09.

Take ATCGCCCGTG: the switch fluorescence ratio came out at 1.07. Next, GACTCGGACA: 1.04; CTCTCCGAGT: 1.21. Next, TGCTGATTT: 0.977; CGTCCTTTAC: 3.24. Consider GAGGCTTATC, for which the switch fluorescence ratio is 1.03.

For the sequence ACAGCTGAGA, the switch fluorescence ratio turned out to be 1.09. Next, GTGAATGCAA: 1.16. GGCTATTTGT: the switch fluorescence ratio was 0.958.

Regarding GACGGGGCGC, the switch fluorescence ratio stood at 1.04.

Take GCACAATATA: the switch fluorescence ratio was 0.99.

In the case of CGGCGATCTT, the switch fluorescence ratio was 0.996. Next, TAAATTCCAA: 0.995; CAAGGTTCCA: 0.988. With ACATAAAGGA the figure was 1.03; with TATAGCTCG, 1.02. With TGCGGTCCGT the figure was 1.77. For ACTTGATAAA, the switch fluorescence ratio was 1. With CCGCGTATTG the figure was 1.64.

As for TAGGAGCT, the switch fluorescence ratio is 0.98.

With CCGTTCTAGG, the switch fluorescence ratio turned out to be 1.01.

Regarding ATAAATATTC, the switch fluorescence ratio came to 0.996.

With GTACTTAGTG, the switch fluorescence ratio was 1.1.

As for CATACGCTTG, the switch fluorescence ratio was 1.07.

As for GCTGCAAGGA, the switch fluorescence ratio came out at 1.15. With CAGTCCCCCC the figure was 1.51; with ACGACGCCGT, 1.18; with CTGTGTTGGC, 1.01. Next, GTGAGAAATT: 0.97; GAGGTTGGTT: 0.973; TTACATACGT: 1.45. With CCTATTGA, the switch fluorescence ratio is 0.963.

As to ATCCGTCGCG, the switch fluorescence ratio came to 1.02.

For the sequence TAGTAGGGAC, the switch fluorescence ratio came out at 0.995.

Take TTACCCGAGC: the switch fluorescence ratio is 0.993.

For TTTCTACCAA, the switch fluorescence ratio amounted to 1.19. With GGTAACAGGA the figure was 0.99. With GCTACAGAGG, the switch fluorescence ratio was 1.04. With GTCCTCTGAG the figure was 1.02. Next, TCTGGTTTAG: 0.987. With TTGGGATGC the figure was 1.03.
